# Results: paper PMC10726135
# This is one part of the list. At the low end of the ranking the order means little. Measured with an extract: partners may take part in the binding.
# Target: T1, HNF4alpha2 (COS-7 nuclear extract) (UniProt P41235)
# T1 sequence: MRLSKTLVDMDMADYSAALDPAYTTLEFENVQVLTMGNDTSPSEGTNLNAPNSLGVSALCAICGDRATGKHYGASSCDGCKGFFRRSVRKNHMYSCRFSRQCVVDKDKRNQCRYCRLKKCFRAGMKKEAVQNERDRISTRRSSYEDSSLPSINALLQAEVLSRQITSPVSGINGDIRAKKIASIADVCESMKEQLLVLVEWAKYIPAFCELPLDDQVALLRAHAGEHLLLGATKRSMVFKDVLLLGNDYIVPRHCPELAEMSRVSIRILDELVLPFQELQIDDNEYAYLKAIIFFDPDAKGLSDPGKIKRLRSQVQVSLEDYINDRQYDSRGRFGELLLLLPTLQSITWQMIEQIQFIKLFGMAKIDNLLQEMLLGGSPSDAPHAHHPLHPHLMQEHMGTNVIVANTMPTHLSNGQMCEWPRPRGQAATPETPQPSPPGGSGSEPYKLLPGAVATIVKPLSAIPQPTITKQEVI
# Assay: protein-binding microarray
# Conditions: COS-7 nuclear extract on double-stranded Agilent 4x180k PBM; binding buffer, salt, pH and temperature not given; high values mean tight binding; double strand, one strand shown; sequences stand for … in …GCCTAGGGAGATTAGAGTATCGGTCGA
row,Sequence,binding signal (log2 normalized intensity)
1,GGAGGAAATAGAGAGCAGACAGGGGCTCAG,-1.23
2,TTTTTCTTTTTTTCCCCCTCACTGAATATG,4.18
3,TGGCTAAGACAGGGGCTATTTCTGACCTTT,6.5
4,CCACCCTATTGATGCAAGGACAATGTCTAG,0.506
5,TTTTAAAAGCCCTCAAATACTCTGAGTAAA,0.153
6,TGGGACTGATAACTTAGGCCCATATTCCTT,-1.04
7,CCTCATCTGAAAAAAGCTATCATTTGTCAC,0.778
8,TATTGTGGGTTCTTGCCCTTTGGTCTGGAA,4.36
9,CAGCTGACCAACAGAGAAGGCCCTGAACTC,-1.07
10,GGTTCTGGCACCTGAAGCTGCCCTTTGCAC,5.37
11,TGAAGTCCAACCCTCCGTTTCTCTGGGCCT,-1.12
12,AAACTCCAAAGTCCATGCTATTAAGCACTA,3.04
13,CATAAAGGGTTGAAGAAAGATCACACAAAT,-1.04
14,CAGAAAGCAAGAGCACAAGAACAAAAACTG,-1.14
15,ATGAGCAAACAGAACTGTTAACTTTGTACT,1.87
16,CAGAGGGCTGCTTGCAGGAGGCCGGGCGCG,-1.18
17,ACATGTGCAAGGGCAGCTCCGTTTACCTAG,-1.11
18,CATTTATAGATAAGCACACTAAGGCTAAAG,-1.15
19,CCTGAGGTGTGAGAGGGCAAAGGTCACAGC,8.02
20,GAGTTTAGGCATTCTTAGACACAGTCTGAG,-0.227
21,GGGCCAGGAGCAGGAGCAGAAGCAGGCCTC,-1.03
22,TGGCTCCAAGGCTGAAGGTCTCGAGGCCTC,-1.18
23,GTTCAACCCTGAATGTGTGCTGGCCTGGTT,1.75
24,AGCCTTTTGTCCCAAGGAGAATTTCACAAA,0.557
25,AGGTGCAGAGAGGGGCAGGGTTCACATAGC,0.765

row,Sequence,binding signal (log2 normalized intensity)
1,AGAGGTCGCGAGAGAACTGAAAAAGGGGAC,-1.15
2,GCCCATAGAATCTTAGGAAAGCACAGCTGA,-1.2
3,GCCCCCTCCCCCTGCCGGCGGCGCAGACGG,4.64
4,GTTTTATATGAAAACAAAGGAAACCAAACA,-0.611
5,CCAACAGGTCAGGGAGTAGGTTTGATTTGT,0.804
6,GTGGGAAATCATTCCAGCTATTCTGCCTTA,-1.1
7,GTGAGTGTGTTGGCAAGAGATCTGCAGGGT,1.22
8,AGTTTGGTGGACTTTGGCCGTGAAGCCGTC,6.2
9,AATATTTAGCTTTCAGTGACTGCTCATTCT,-1.02
10,CCAGTTCCCTCATTAGTAACTCCAGAGATA,-0.126
11,AACAAATTGTGTGCAACAGGAGCCCAGAGA,-0.938
12,GGTCCCACACACCTCAAATGCAGGTGAGAG,-1.23
13,TATCTCTCCAAGGTACTGTGAACTCCAGCT,-0.392
14,CCCCAAAGGCAGGCAGCATGGAATGACTTT,-0.848
15,GTAGGTAAACAGTGACTCATGCAAGCCTGA,-1.12
16,TACTCTCTTTGGAGTGCTCCCGCCTGACCT,2.62
17,TAGTGTAGTTCCGCTGCTGTCTCGGGGCCA,-1.08
18,TCAGTTAAGGCTTTGAAGTAGGGGCTGCTG,-1.19
19,GCGGTTACTTCGAGTACATTGTAACCACCT,-0.503
20,CTAATGCCACCATTGATCTAACAGGAGGTG,0.0793
21,ACCTTTGCCCTTCTTGTTAACCTCCTATGA,2.69
22,CCACCTGGTGGCAATGTGTCAGAGAAGGAG,-0.945
23,GGGTATTTCCTAAACCAACTATAGAAAGCC,-0.85
24,ACTGTGTTGCAAATTATTACTCCCACCGTG,0.753
25,CCAGCTGTCACCCAGCCAGAATTCTCCCTG,-1.09

row,Sequence,binding signal (log2 normalized intensity)
1,GTCCGAACTCACTACAAACGCCTCTAAGCT,-1.12
2,ATCTTGGACTTGGGACTCTGCAGACTGGTG,3.4
3,CCCCCACCTGTGAAGATAAGCTGTCAATTT,1.74
4,CCTTTGTCCCGTTATGGCACCAAGAAACCT,0.163
5,GGCAAGATTTTGTCCTGAGTTATTGGAAGA,0.951
6,CAACGTCCAGAGATTTGCTCGCATTCTTCC,-1.05
7,TGTGGGTTCAAATCCATTCAGCAGCGTGTA,0.683
8,CTTAGACAGTAACCCTTGAGCTCTGCACAG,0.901
9,TGAGGCTTTTGAGTCAATAATGGACAAGTT,1.37
10,GGTACCCTGGCTTGTAATTCAAGACTATAG,-1.17
11,ATCTCTAAGCAAACATTCCTCCCTCCCTCT,2.82
12,TCCCGGAACCGTCTGCCCAGAGCGGCAGCG,-1.14
13,TCTCTGTAGGTAAACAGTGACTCATGCAAG,1.42
14,TAATCCCTTATGACGGACAAAGGGCTCTCT,-1.17
15,AACAGGCATCAACTCTATCATACTCAGCTA,-1.07
16,TCCTGACCAGGGGCCAGCAAGAGGTGACCC,3.4
17,TTATTGTGAACTGGAGCAAAGGTCACTCTT,5.15
18,TTTCTCCCCTGACTACCAGCCAGTAGGAGT,1.69
19,AATTTAGATACTCACCAGTGGGCCCAGAGC,-1.21
20,CCGAGAATGCAGCCTTATCTTCCAGCCCTG,-1.16
21,TTGAGAACTTTGACACCGAGGCATATTTAA,1.12
22,TCAAGCTCAATGCAACCAGTTGGTGGGTCA,1.17
23,CACTCTCTGGGTTAAACGTGCAGCAATAGG,1.43
24,CATGACCCTTTGCAGGTGGGAGAGGGGGAC,-0.835
25,AAAGCCCAAGGGATGTCCATGAGGAGTTAA,-1.02

row,Sequence,binding signal (log2 normalized intensity)
1,GGCGTGCTGTGTACTTTGAACTGAAGGATA,4.66
2,TAAGGACAACCGGTAGCACAACATACTTGG,-1.1
3,AGGGGCACTCTCTGTTATCAGACACAAGAA,-1.02
4,ACCAGAACTTCTTATCACTTGGTGGACATG,1.45
5,TCAAAGGTCAAAGGGCATAGCCTCAGGGAC,5.07
6,GGGCAGCAAACCTACCTGAACTTTGCCCCA,7.99
7,CAGGAATGTTCAAGAAGTTCCAAAGGCCAG,1.58
8,CTGCTTCCAAAGAGCTCAACCTGTGAAAAT,0.355
9,ATCAAATCCTAACATGCTGCAGGCATTTCT,-0.741
10,ACAAGGAGATGGCCCCTCTCTTTTATTATA,0.132
11,TAAGGTTTCTCAGCCCCATCCCCCAATACA,5.63
12,CAACTTTCTCCTCCAGGACCTTGCCCTTTA,4.23
13,AGTGGCCTGAGGCAGCCAGTGAGTGCAGCA,-1.11
14,GTCTTACTGATGGGCAAAGTTTTCAAGAAT,0.966
15,AGACAGAAGTAAAACAGGTAGAGAGCTGTC,-1.17
16,CCATCTTGTGGCCATGCTTAGGACTGCAGG,0.426
17,TCTGCTGTACATATTTGCCAAGTGATAAGG,1.43
18,CAGAGTTCACCCCATTTTGTCCCTCCCTGC,3.99
19,TGTGAGCCAATTCAGCAAACAAAGGCACTT,-0.475
20,AAGAAGCTCTGGCGCCATCTGGTTTCTTTA,-1.26
21,TACACAGCAGCTTTAGTCAGAGATTTCTTT,-1.14
22,TGCAATGAAAGTCCACTTGTCTGGCCTTCC,1.47
23,CCTCTTTCCTGCAGGCCCATCTGGGACTTC,1.33
24,TTGGTTCAAGAGAAATGTTATCTCAGTAGA,-1.14
25,CATGCTATGCTCTCTCTCCACCTGGAGGGA,-1.03

row,Sequence,binding signal (log2 normalized intensity)
1,ATTTTACTACTAACCGAAAGTCTGACCCTT,4.54
2,CAAGGGCATTTGCGTAGGCTGTCAGAGTGC,-0.194
3,TCTAAGGCAAAACACCCCTTTCACTTCTTC,1.01
4,ATTTTTCCCTTTGATATTTATCAAGATGAA,0.736
5,GGATTCTGGCTAAACCAGCCTAACAGGATT,-1.14
6,CTGCTAAACCAACACCAGCAACCGCCTACC,-1.04
7,CTTGTTTTGGGGGTTGGTATTACAAAGCAA,1.34
8,CAGCTCTCTCCCTTATCTGAATTCCAGCAT,-1.02
9,GAGTTAACTATTGAGACTTTGGGGTTTTAT,0.792
10,GACCTGACACCCGCTGGCGCCATCCAAAGG,-1.21
11,GGTGACCGGACACAAAAGCTGCTGCCAAGC,-1.02
12,CTTATCTTTGACCTTACCAGCCCACTCTTA,1.9
13,GGGTCAGAACCTGCCCATGACCTTTGGACT,11.1
14,GCTTTAAAATGGGTACAGACAATAGGAAGA,-0.121
15,CTGGCATCTGGTCAGGGGTCAAGAAGCTCT,2.21
16,ACATACTTGGAGACAGTCACTCCCACCCTT,2.67
17,GGAGGCCGCGACAAGCGTCGCTGAGTGGAG,-1.04
18,ACACACGTTCCTGACAGACTGCCATTCCAG,-1.19
19,TTCTAGGTAGATAAGGGAGTTTCAGAGGAC,-1.14
20,GTCCAAGAAAAAGGAGCAGATGGCTAGTGA,-0.599
21,GGGGTCAGATAATTCTTTGCTGTGGTAGGC,1.04
22,GACTTTAATCTCCAAGTAACTGAAACTACA,-1.13
23,CCTAAGCCCTGCCACCCCCGTTAATTTCTA,2.86
24,AAAGATCAGTGTACTTAAAAATGCCTTTCA,-1.1
25,AGATAATGGGGGAGCCACTGCAGCTTTCTG,-1.1

row,Sequence,binding signal (log2 normalized intensity)
1,AAAAAAAAAAAAGAACACAGTGTAGAAGGC,-1.02
2,GACCTCAATGTGCTCATCCATAAAATGGGG,0.0579
3,ATACACCTTGCCTGGCTACCTCTTAGCTAC,-1.08
4,CTATCAGTTGAGATTTATTCCCAGGTTCCA,0.371
5,TAACCTTTGGCTGGTAGAGCAGGTTTCAGA,1.84
6,GGGGACTTCACATGCCTTTGTAGTTACCCA,0.0234
7,ATATCATTAACCTATTATTTTATAGAAAAG,1.15
8,CTGCGTTTCTCCTCTCTGGGCTTCCATTGT,1.2
9,CCAGATGTCTGGCTAAGACCTTTAGTTAGC,0.978
10,CCCTGGACTCAGCTCCCATAGAGTCCACCA,2.26
11,CTTCATGGAGAGAATTCCCATCCCACTAGG,-1.16
12,CCAGGTTGCATCAGCTGGGCTCGGCGCTCC,-1.06
13,CACCCAGAACTTTGACCGTTTGATTATTTG,2.56
14,TCTCTGTAACATTCCTAGATATCAGGAAGG,-0.456
15,CCTAAAAGCTTTCTTGGGCAAGAAAGGGGT,-0.934
16,TCCAAAACATTGTAGAATTATCCAGATCAA,-1.13
17,TCCCTCATATAATTTACATAACAGGTTTGT,2.1
18,ATAAGATGAAGCTCTCAGAATAGCAAATCT,-1.16
19,CTGACCTTTACCCATTCCTTAGTGCATGGG,3.13
20,TCTTTTCTAAGATATTTGCATAGGCATTGT,1.94
